The values below come from PubChem BioAssay AID1346428 (National Center for Advancing Translational Sciences (NCATS), 2018).

Values joined by “and” are separate entries in the source; they are usually repeats but may differ in a detail not shown here. Identical values can stand only once. Out of some 48,000 compounds screened, about 1,200 (2.5%) were called active. Another 2% or so got no clear call; they are omitted.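 The calls were made as follows: active = activation of at least 60% and not above a set upper limit (about 1 call in 100 departs from these limits); inconclusive = activation of 40% to 60%, or above that upper limit; inactive = activation under 40%.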 Some of the results follow.

Chain of UniProt O75388 (O75388 whole entry, looked up): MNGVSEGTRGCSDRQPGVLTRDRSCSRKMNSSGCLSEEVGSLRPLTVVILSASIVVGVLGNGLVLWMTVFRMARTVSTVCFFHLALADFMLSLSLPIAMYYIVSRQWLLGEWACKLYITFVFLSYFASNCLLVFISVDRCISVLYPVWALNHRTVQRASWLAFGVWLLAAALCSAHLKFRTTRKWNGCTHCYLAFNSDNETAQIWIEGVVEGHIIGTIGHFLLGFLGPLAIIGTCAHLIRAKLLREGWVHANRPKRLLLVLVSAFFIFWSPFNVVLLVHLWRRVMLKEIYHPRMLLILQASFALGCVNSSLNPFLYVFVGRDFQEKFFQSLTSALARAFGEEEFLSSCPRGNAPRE

The target of the assay is Probable G-protein coupled receptor 32 (Homo sapiens) (UniProt O75388). As to the kind of experiment: qHTS for Agonists of Human Resolvin D1 Receptor DRV1. Also: 0% is about no effect. The conditions noted are these: CHO-K1 GPR32 beta-arrestin PathHunter luminescence, 90 min; at 76.9 µM; stronger effect = higher value; zero percent set by DMSO-only wells. The method, boiled down:
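CHO-K1 cells stably expressing ProLink-tagged GPR32 and Enzyme Activator-tagged beta-arrestin were seeded at 2,500 cells/well overnight, exposed to compounds for 90 min at 37 °C, then read by beta-Gal complementation chemiluminescence after 1 h detection reagent.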
Background: In qHTS, concentration-response curves come from the screen itself.
For `Cc1ccc(S(=O)(=O)C(CNS(=O)(=O)c2ccc(F)c(C)c2)c2cccs2)cc1` (stereo not drawn), the activation was inactive: -25.1%. For the compound `CCc1ccccc1N(CC)C(=O)Cn1nc(Cc2ccncc2)c2ccccc2c1=O`, the activation is inactive: -9.44%. Under `Cc1ccc(-n2cnc3cc(C(=O)NCCC4=CCCCC4)ccc32)cc1Cl` stands inactive: -18.6%; under `Cc1cccc(NC(=O)COc2ccc3oc4c(c3c2)CCCC4)c1`, inactive: 27.3%; under `Cc1ccc(OCC(=O)Nc2cccc3ccc(C)nc23)c(C)c1`, inactive: 5.49%. As for `O=C(CCc1nc(-c2cccs2)no1)Nc1ccc([N+](=O)[O-])cc1`, the figure is inactive: 8.92%; as for `COc1ccc(CNC(=O)C(=O)NCC(c2cccs2)S(=O)(=O)c2cccs2)cc1` (stereo not drawn), inactive: 1.2%. Under `CCOc1ccccc1NC(=O)Cn1nc(N2CCN(c3ccccc3)CC2)ccc1=O` stands inactive: 22.3%. Take `Cn1c(/C(C#N)=C/c2ccc(C(F)(F)F)cc2)nc2ccccc21`: the activation was inactive: -13.6%. With `O=C(NCc1ccccc1Cl)c1ccc(-n2cnc3cccnc32)cc1`, the activation is inactive: 23.5%. Consider `O=C(CCC1N=C2c3ccccc3N=C(SCC(=O)NCCc3ccccc3)N2C1=O)NCc1ccc(F)cc1` (stereo not drawn), for which the activation is inactive: -18.3%.

With `CCC(NC(=O)Nc1cccc(C)c1)c1c(-n2cccc2)sc2c1CCN(C)C2` (stereo not drawn), the activation was inactive: -28.4%. For the compound `Cc1cn2c(=O)c(S(=O)(=O)NCc3ccc(F)cc3)c(C)nc2s1`, the activation was inactive: -12.6%.

For `Cc1ccc(CNC(=O)CSCc2nc(-c3cccc(C)c3)oc2C)cc1`, the activation is inactive: -2.54%. With `O=C(Cn1c(=O)n(-c2ccccc2Cl)c(=O)c2sc3ccccc3c21)NC1CCCC1`, the activation is inactive: -9.36%. Under `CCOc1ccc(-c2nnc(SCC(=O)N(CC)c3cccc(C)c3)o2)cc1` stands inactive: 10.3%; under `CCOc1ccc(OCC)c(NC(=O)C2CCCN(S(=O)(=O)c3ccc(C)cc3)C2)c1` (stereo not drawn), inactive: -9.45%. As to `CCCN(CCC)C(=O)Cn1c(=O)n(-c2ccc(Cl)c(Cl)c2)c(=O)c2c(C)c(C(=O)N(C)C)sc21`, the activation is inactive: -8.14%. For `COc1ccc(-c2c(C)nn3c(N4CCN(c5cc(Cl)ccc5C)CC4)cc(C)nc23)cc1OC`, the activation is inactive: -58.6%. Under `Cc1ccn2c(Nc3ccc4c(c3)OCCO4)c(-c3ccc(N(C)C)cc3)nc2c1` stands inactive: -5.25%; under `O=C(O)CCC(=O)c1ccc(-c2ccccc2)cc1`, inactive: 1.72%; under `COc1ccccc1CNC(=O)CSc1cc(C)[nH]c(=O)n1`, inactive: -3.76%. Under `Cc1ccc(NC(=O)CN(c2ccc(C)cc2)S(=O)(=O)c2cccc3nonc23)cc1` stands inactive: -19.4%; under `CCOc1ccccc1NC(=O)CCc1c(C)nc2cc(-c3ccccc3)nn2c1C`, inactive: 4.44%. With `Cc1cccc(NC(=O)c2c(NC(=O)c3ccco3)sc3c2CCC(C)C3)c1` (stereo not drawn), the activation was inactive: 3.78%. With `CCOCCCn1c(=N)c(C(=O)NCc2ccccc2)cc2c(=O)n3ccccc3nc21`, the activation was inactive: -5.62%. As for `COc1cccc(NC(=O)Cn2c(=O)n(CCc3cccc(C)c3)c(=O)c3ccccc32)c1`, the figure is inactive: 33.8%; as for `Cc1c2cnn(-c3ccccc3)c(=O)c2c(C)n1C(C)C(=O)NCc1cccc(Br)c1` (stereo not drawn), inactive: -27.2%; as for `CCCN(CCC)C(=O)c1nn(C)c2c1CSc1ccccc1-2`, inactive: -18.7%. As for `Cc1ccc(NC(=O)Cn2nc(-c3ccccc3)nc(Cc3ccccc3)c2=O)cc1`, the figure is inactive: -7.85%; as for `COc1cccc(CNC(=O)c2ccc3c(c2)nc2n3CCC(C)C2)c1` (stereo not drawn), inactive: -14.3%. As to `COc1ccc(-n2nc(-c3ccc(C)cc3)c3cnc4cc(F)c(F)cc4c32)cc1`, the activation was inactive: -3.96%.

For the compound `CCc1nc2nc(C)c(NS(=O)(=O)c3ccc(F)c(C)c3)c(=O)n2[nH]1`, the activation is inactive: -1.68%. Consider `Cc1ccccc1C(=O)Nc1ccccc1-c1nc(-c2ccccc2)no1`, for which the activation is inactive: -6.9%. As for `Cc1nc(-c2cccc(F)c2)sc1CCNC(=O)C(=O)Nc1ccc2c(c1)OCCO2`, the figure is inactive: 22.5%; as for `Cc1ccc(NC(=O)CSc2nc3ccccc3n2CC(=O)N(C)C2CCCCC2)cc1C`, inactive: -3.63%; as for `CC(C(=O)Nc1ccccc1)n1nnc2sc3c(c2c1=O)CCCC3` (stereo not drawn), inactive: -5.88%. Under `CCOc1ccc2nc(N3CCCC(C(=O)NCCc4ccc(C)cc4)C3)sc2c1` (stereo not drawn) stands inactive: -4.84%; under `CCCCn1c(CNC(=O)C23CC4CC(CC(C4)C2)C3)nnc1SCC(=O)Nc1ccc(F)cc1`, inactive: 38.7%. As for `Cc1cccc(NC(=O)Nc2nnc(N3CCCC3)s2)c1`, the figure is inactive: -5.53%. For the compound `Cc1cccc(Cn2c(=O)n(Cc3ccccc3)c(=O)c3sc4ccccc4c32)c1`, the activation is inactive: -8.35%. As for `Cc1ccc(NC(=O)C2CCCN2S(=O)(=O)c2ccc3nc(-c4ccccc4)[nH]c3c2)cc1C` (stereo not drawn), the figure is inactive: -3.25%. Consider `Cc1cc(C(=O)NCc2ccccc2)c2c(C)nn(-c3cccc(Cl)c3C)c2n1`, for which the activation is inactive: -7.52%.

Consider `CCOC(=O)c1[nH]c(C)c(CCC(=O)Nc2cc(Cl)c(OC)cc2OC)c1C`, for which the activation was inactive: -24.7%. With `Cc1ccc(CCNC(=O)c2ccc3c(c2)N(Cc2ccc(F)cc2)CCS3)cc1`, the activation is inactive: -16.5%. Consider `CCC(C)NC(=O)c1cn(CC)c2ccc(S(=O)(=O)N3CCc4ccccc4C3)cc2c1=O` (stereo not drawn), for which the activation is inactive: 3.75%.

With `O=C(NCc1ccccc1Cl)c1ccc2c(c1)N(Cc1ccccc1)CCS2`, the activation was inactive: -23.1%. For the compound `O=C(CSc1nc2ccccc2n1Cc1cccc(F)c1)N1CCN(c2ccc(F)cc2)CC1`, the activation was inactive: -5.27%. As for `O=C(NC1CCCCCC1)c1ccc(CS(=O)c2cccc(Cl)c2)o1` (stereo not drawn), the figure is inactive: -17%; as for `Cc1cc(C)c(NC(=O)Cn2c(=O)n(CC(=O)NCCc3ccccc3)c(=O)c3ccccc32)c(C)c1`, inactive: -0.139%.

Consider `Cc1nc(-c2ccc(C)c(S(=O)(=O)N3CCC(C(=O)NCc4ccc(F)cc4)CC3)c2)no1`, for which the activation is inactive: -0.296%. As for `CCCCc1ncc(/C=C(\Cc2cccs2)C(=O)O)n1Cc1ccc(C(=O)O)cc1`, the figure is inactive: -41.7%; as for `Cc1cccc(-n2nnc(-c3nc(-c4cccs4)no3)c2N)c1`, inactive: 4.79%.

Take `Cc1ccc(C)c(CNC(=O)CN2C(=O)CSc3ccc(S(=O)(=O)N(C)C)cc32)c1`: the activation was inactive: 2.49%. With `Cc1cc(N2CCC(C)CC2)nc2ccc(NC(=O)CCC(=O)N3CCN(c4ccccc4F)CC3)cc12`, the activation is inactive: -27.9%. In the case of `O=S(=O)(c1ccc2nc(Nc3ccc(F)cc3)ccc2c1)N1CCCC1`, the activation is inactive: -19%. Under `CCc1ccc(NC(=O)Cn2c(=O)n(CCc3ccccc3)c(=O)c3sc4ccccc4c32)cc1` stands inactive: -3.81%; under `N[C@@H](Cc1ccc(O)c(O)c1)C(=O)O`, inactive: 2.13%. As for `CC(=O)c1cccc(N2C(=O)CN(S(C)(=O)=O)CC2(C)C(=O)NC2CCCC2)c1` (stereo not drawn), the activation was inactive: 2.93%. Regarding `COc1ccccc1N1CCN(S(=O)(=O)CCNC(=O)C(c2ccccc2)c2ccccc2)CC1`, the activation was inactive: -29.9%. Take `O=C1NC2CCCCN2C12CCN(CCCN1c3ccccc3CCc3ccc(Cl)cc31)CC2` (stereo not drawn): the activation was inactive: -11%. With `COc1ccc(S(=O)(=O)N(CCc2ccccc2)CC(=O)Nc2cc(C)cc(C)c2)cc1OC`, the activation is inactive: -10.3%.

Consider `CC1=C(c2ccc(C(C)C)cc2)S(=O)(=O)NC1=NCc1ccc(Cl)cc1`, for which the activation is inactive: -5.31%. As for `COCCCNC(=O)C1CCN(c2nc3ccc(Cl)cc3[nH]2)CC1`, the figure is inactive: -2.24%; as for `CCCCCCCCOc1ccccc1C(=O)Nc1ccc(C(=O)OCC[N+](C)(CC)CC)cc1`, inactive: -55.9%; as for `Cc1sc2ncn(CC(=O)N3CCN(c4ccccc4)CC3)c(=O)c2c1S(=O)(=O)N1CCC(C)CC1`, inactive: -14.4%. As to `CCc1ccc2occ(CC(=O)Nc3ccc(C)c(C)c3)c2c1`, the activation was inactive: 33.5%. As for `CCOC(=O)c1ccccc1NC(=O)c1nn(-c2ccc(OC)c(Cl)c2)c(=O)c2c1c1ccccc1n2C`, the figure is inactive: 15.9%; as for `Cc1ccc(CNC(=O)CCCc2nnc3n(CC(C)C)c(=O)c4sccc4n23)cc1`, inactive: -1.76%; as for `O=C(CN1C(=O)CSc2ccc(S(=O)(=O)N3CCCC3)cc21)NCc1ccc(F)cc1Cl`, inactive: -3.94%. As for `O=c1c2nncn2ccn1-c1ccc(F)c(F)c1`, the figure is inactive: 32.4%. As for `O=C(c1cc2cc3ccc(Cl)cc3nc2o1)N1CCN(c2cccc(Cl)c2)CC1`, the figure is inactive: -1.45%; as for `CCN(CC)C(=O)C1CCCN(c2ncnc3c2c(-c2ccccc2)cn3-c2cccc(C)c2)C1` (stereo not drawn), inactive: -37.6%; as for `Cc1cccc(NC(=O)N2CC=C(c3c[nH]c4ccccc34)CC2)c1C`, inactive: -24.5%. As to `CCCSc1ncnc2c1c(-c1ccccc1)cn2-c1ccccc1OC`, the activation is inactive: -0.665%. As for `COc1ccc(OC)c(NC(=O)CS(=O)(=O)Cc2nc(-c3ccc(C)cc3)oc2C)c1`, the figure is inactive: -10.2%. For `CN1CCN2c3ccccc3Cc3ccccc3C2C1` (stereo not drawn), the activation is inactive: -12.6% and inactive: -17.5%. As for `CCOc1ccc2c(c1)c(=O)c(S(=O)(=O)c1ccc(CC)cc1)cn2Cc1cccc(Cl)c1`, the figure is inactive: -15.5%; as for `Cc1ccc(Cl)cc1Nc1nn2c(=O)c3ccc(C(=O)NC4CCCCC4)cc3nc2s1`, inactive: 6.5%. Under `CCc1cccc(C)c1NC(=O)Cn1ncc2c3ccccc3n(Cc3ccccc3)c2c1=O` stands inactive: -10.3%; under `COc1ccc(-c2cn3nc(SCC(=O)Nc4cc(C)cc(C)c4)ccc3n2)cc1`, inactive: -8.9%. Take `CCOc1ccc(OCC)c(NC(=O)c2cc(-c3cccs3)nc3ccccc23)c1`: the activation is inactive: 9.73%. As to `CCCCOC(=O)c1ccc(Nc2nc3ccc(C(=O)c4ccccc4)cc3n3cnnc23)cc1`, the activation is inactive: -6.41%.
